± gives the standard deviation of the averaged measurements. Some of the results follow.

56 sequences from the supplement of paper PMC11417369 can be followed below.

This experiment relates to PfAP2-G AP2 domain (GST-tagged). Put plainly: gcPBM binding intensity (ln(normalized median fluorescence intensity)); higher = stronger DNA binding. In a few lines:
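After 1 h on an Agilent 4 × 180k array of primer-extended double-stranded 36-bp intergenic genomic probes and negative controls, bound GST-tagged P. falciparum DNA-binding domains were detected with Alexa488 anti-GST antibody and scanned at 488 nm. The domains had been expressed in E. coli, and binding took place in 1× PBS with 1% milk, 0.2 mg/ml BSA, 0.5% salmon testes DNA and 0.03% Triton X-100. Binding intensity is the highest Masliner-normalised natural-log median intensity across replicate spots of either probe orientation.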
As for “TAAACATATAAAAAGGGTACACATTAAACATAGTAT [XGTACX_site7096]”, the “gcPBM binding intensity (ln)” value was found to be 11.3 ± 0.79.
As for “AAATCATTCCTTTATTCACACAATATCTGTATTTAT [CACACA_site4407]”, the figure is 10.05 ± 0.021; as for “TTGTATTTACACGATCAACCAAATGGTATATAAATA [GTGCAC_negctrl_site167]”, 10.2 ± 0.2.
As for “ATATGTAGTTTTTACCTAATAAAAAAAAAAAAAAAA [CACACA_negctrl_site672]”, the figure is 9.78 ± 0.45; as for “ATGCACATTTATAAAAGTACATGTATGTAATATGTT [XGTACX_site830]”, 11.2 ± 0.69.
In the case of “ATTTAAATGAAAAAATGTACAAAAAGATTTAAACTC [XGTACX_site1489]” it was 11 ± 0.46; in that of “AAAACAAATTAAAATCGTACAATTATAATGTTAATG [XGTACX_site180]”, 10.9 ± 0.4; in that of “TATAAAATAAAAATTATATATTTTAAATGGATACAA [TGCATGCA_negctrl_site284]”, 9.89 ± 0.099.
As to “ATAGCTAAGATAGCTTGTACATATATTTACATATAT [XGTACX_site3694]”, the “gcPBM binding intensity (ln)” value is 10.8 ± 0.52.
In the case of TCCATATGCAAACTGGTGCACAAGTAGCTTTTATAT it was 10.4 ± 0.48.
In the case of “TAATTCCATAAGTAAACACACAAATGCCAAAATTTT [CACACA_site3205]” it was 10.04 ± 0.035; in that of “GTGCGTGCGTGTACTTAACACACATAATATGTATTT [CACACA_site8336]”, 11.4 ± 1; in that of “TTAAAGGGAATGTATACACACGTTTCTCTATGTTAT [CACACA_site4793]”, 9.97 ± 0.099.
As to “TTAAGCCGCAATATGGGTACATAGGAAGAAGGGGAA [XGTACX_site8397]”, the “gcPBM binding intensity (ln)” value is 11.3 ± 1.
As for “ATATATAAAAATATTTGTACATATAGTTATATTTAT [XGTACX_site6114]”, the “gcPBM binding intensity (ln)” value is 10.8 ± 0.54.
In the case of “TTTCTTTTTCTAGTTATTTTTACTTATCCCTAATTT [TGCATGCA_negctrl_site460]” it was 9.84 ± 0.27; in that of “TTATAATTAAGATATAATCAATAATAACAAATGAAC [CACACA_negctrl_site1690]”, 9.84 ± 0.014.
“TTCTTTGCTTCTGTTTCACACATTTTTAAAATAAGC [CACACA_site4741]”: the “gcPBM binding intensity (ln)” value came to 10.3 ± 0.15.
In the case of “CAAAAAAGGTCCCGGAGTACATATATAATTTTTTTT [XGTACX_site458]”, the “gcPBM binding intensity (ln)” value worked out at 11.6 ± 0.83.
On to “GAGATGACATTACACAGTACCCAGGAAATCTACGGA [XGTACX_site4931]”, for which the “gcPBM binding intensity (ln)” value was determined as 10.8 ± 0.47.
In the case of “TATATATTGTTATATACACACATGTATATAAAAAAT [CACACA_site3221]” it was 10 ± 0.21.
In the case of “ATTGTCCTAAATACTACAAAGTAGATCTTTAATATT [CACACA_negctrl_site1795]” it was 10.8 ± 0.6; in that of “AAAATTATATATTTTAGTACATAAAATATTGACATA [XGTACX_site2581]”, 11.1 ± 0.88; in that of “ATGTAATGTTATGTTATGTTTTTTTTTTTTTTGTGT [CACACA_negctrl_site1264]”, 9.745 ± 0.064.
In the case of “TTTTAAACAGGACACACACACATATATATATATATA [CACACA_site4664]” it was 10.4 ± 0.37; in that of “GATATATTTTATATATGTACATACAGTGGTAAATAT [XGTACX_site1324]”, 11.2 ± 0.54.
Take “TTTATACAAAAAAACAAAATCAAACAAAAAAAAAAA [CACACA_negctrl_site252]”: the “gcPBM binding intensity (ln)” value worked out at 9.65 ± 0.13.
“GGAATATGTATATTTTGTACGTATACATTTTTTGGG [XGTACX_site7681]”: the “gcPBM binding intensity (ln)” value came to 11.2 ± 0.58.
In the case of “GTTATTGTAAAAAGATTACACACGTTCTATATACTT [CACACA_site2473]” it was 9.95 ± 0.18.
As for “TTTTCTACATCTTGTTGTACGAAAAATAAAAAAAAT [XGTACX_site4620]”, the figure is 11.1 ± 0.91; as for “AGTACGTAAATTATAATACACACTATAGGATATTCT [CACACA_site2559]”, 10.8 ± 0.49.
In the case of “TATTAGCATGTTATTACACACAATATAAGATATATA [CACACA_site6775]” it was 9.91 ± 0.099; in that of “AATATATATTTATAAACACACACCAAAATTTGTGCT [CACACA_site3091]”, 9.855 ± 0.064; in that of “ACATTTTGTGTTTTAGCACACAATTTTTCAGAATAT [CACACA_site2961]”, 10.1 ± 0.18.
As for “ATATTATAATATTTATGTACATATATATAATATATA [XGTACX_site1633]”, the “gcPBM binding intensity (ln)” value worked out at 11.2 ± 0.76.
As for “TACATTTGTATAAATAGTACGCGAAAACAAAAAAAA [XGTACX_site6246]”, the figure is 11.2 ± 0.61; as for “ATATATGTGCCCATATATATATATATAAATATATGT [GTGCAC_negctrl_site226]”, 10.6 ± 0.56.
In the case of “TATATATGTATCATTACACACATGTATACTTATTTG [CACACA_site4138]” it was 10.3 ± 0.16.
In the case of “TGTATAAATATATATACACACATATTTATATATATA [CACACA_site755]” it was 9.825 ± 0.035; in that of “TATGCTATATATTTAGTGCATATATATAACTTTTAT [GTGCAC_site9902]”, 9.79 ± 0.15.
Consider “TAAAAAAAAACAGAAACACACATTATTCATATATAT [CACACA_site2049]”, for which the “gcPBM binding intensity (ln)” value came out at 9.81 ± 0.18.
In the case of “AAAATATTTATGTATGCATGTTGTAATATTTCTTTA [TGCATGCA_site296]” it was 9.84 ± 0.057; in that of “ATTTCCCCTTTTTATTGTACATTTTTATTTGTTACT [XGTACX_site4845]”, 10.9 ± 0.53; in that of “GCTCTAATTAATATTTGTACACACATATTTAACCTA [XGTACX_site6808]”, 11.3 ± 0.79.
As for “AATCTAGGTATTTATACACACTAAAATAATATACGA [CACACA_site4515]”, the figure is 10.05 ± 0.042; as for “AAAAAAAAAAGAAACACACACATATAGATTTATAAC [CACACA_site6927]”, 9.78 ± 0.11; as for “ATTTAAATAATATTCACACACAAAATTAAATTTTAA [CACACA_site6246]”, 9.99 ± 0.13.
As for “AAAAAATTAACCGTAACACACACACCGATATATATA [CACACA_site9312]”, the figure is 10.1 ± 0.27.
As to “TGATCTTTACACATATTATATATATATAAAAAAAAA [XGTACX_negctrl_site360]”, the “gcPBM binding intensity (ln)” value was 9.99 ± 0.26.
In the case of “TTTTTTTTTTTTTTTTGTACATAATTCCATATTTTT [XGTACX_site1789]” it was 10.7 ± 0.96; in that of “ATATTTAATTTGTATGGTACAGTACGATCTTTCTTT [XGTACX_site5533]”, 11.2 ± 0.69; in that of ATAAGAATATATAGAGTGCGTTGAAGAATTATAATA, 9.82 ± 0.12.
Turning to “TTATAACATATAAACATGTTTCATCTTACGTATTTT [GTGCAC_negctrl_site694]”, the “gcPBM binding intensity (ln)” value stood at 10 ± 0.11.
As for “TGTTATATCAATAATATATAATAATACCCTTCTTTT [CACACA_negctrl_site1682]”, the figure is 9.82 ± 0.014; as for “ATCGCAAGATTAATATAAGGAGAAACGTTTATATAT [GTGCAC_negctrl_site267]”, 9.68 ± 0.15; as for “CCCTCAACGAATTTGAGTACACATTTTAAATGATAT [XGTACX_site7763]”, 11.7 ± 1.1.
